± gives the standard deviation of the averaged measurements. The list shows a part of the results.
Tested on: PfAP2-LT AP2 domain (GST-tagged)
Assay: gcPBM binding intensity (ln(normalized median fluorescence intensity)); higher = stronger DNA binding
In short: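 Binding of GST-tagged P. falciparum DNA-binding domains, expressed in E. coli and used at about 25 μg on average, was carried out for 1 h in 1× PBS containing 1% milk, 0.2 mg/ml BSA, 0.5% salmon testes DNA and 0.03% Triton X-100. The target was an Agilent 4 × 180k array of primer-extended double-stranded 36-bp intergenic genomic probes plus negative controls, read with Alexa488 anti-GST antibody at 488 nm. Binding intensity is the highest Masliner-normalised natural-log median intensity across replicate spots of either probe orientation.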

Sequence | gcPBM binding intensity (ln)
TATTTTATAATAGGCACACATATAAAAATATATATA [CACACA_site4127] | 8.58 ± 0.44
TAATTTTTTTTAAATACACACTGAAATGTGAATTTT [CACACA_site4476] | 8.46 ± 0.38
TAATAAAGTATTTTGCGTACTTATTTTATTCTTCTA [XGTACX_site2095] | 8.68 ± 0.52
GCCCCCAAATTATGTGTGCACTTTATATTCCTGAGA [GTGCAC_site9474] | 9.46 ± 0.099
ATTGTGTGAACAAAATGTACATTTTCTCTACATTAA [XGTACX_site1333] | 8.72 ± 0.44
TGGCATATATATAAATGTACTTTCTTTCTATCTGTT [XGTACX_site8483] | 8.76 ± 0.45
AGGTCATACATAAAATGTACATATATATAAATATAT [XGTACX_site7147] | 8.87 ± 0.47
ACAAGAATACACCACGCACACACACTAGAGAAAAAA [CACACA_site9276] | 10.1 ± 0.54
TGAACACCCAAATACACACACTCAAAAAAAAAAAAG [CACACA_site5467] | 9.42 ± 0.52
ATAAAAATAAAAGACGCATGTTCTTAAAATAAGAAC [TGCATGCA_site189] | 8.93 ± 0.47
AAACAAAATGGTAACACACACATATATATATATATA [CACACA_site1939] | 10.09 ± 0.021
ATATATATATATAATGCACACATTATGAATTATGTA [CACACA_site3384] | 9.18 ± 0.15
GTGTGATCTTTTGAAAGTACATTTTTTTTTTTTTTT [XGTACX_site6311] | 8.49 ± 0.33
TGTATGCATATTTGATGTACGCACATATACTAATTT [XGTACX_site3159] | 8.91 ± 0.38
TTTATATAAAAAAATTGTACATATTTATTATAAACA [XGTACX_site2124] | 8.28 ± 0.45
TATATTCTTATTATTGCATGCTGCACGAAGATTTTC [TGCATGCA_site831] | 9.06 ± 0.38
ATAATAAATAAAATAACACACATATATAGATATATA [CACACA_site6224] | 8.99 ± 0.42
GTATGTTTGTTATGCACACAAATGCATCTTATTTCC [CACACA_site2690] | 9.32 ± 0.41
TTTAATTATAAGATAACACACAAAAAAAATAAAATA [CACACA_site254] | 8.81 ± 0.47
TATTTAATTACATGAACACACATTATGTATTTTTAA [CACACA_site2962] | 8.72 ± 0.47
TAAAAAAAAAAAACAAGTACATATATAAATATATAT [XGTACX_site7537] | 8.6 ± 0.52
TTTTTATTTAATAATATATTAATCATATAAATAAAT [GTGCAC_negctrl_site210] | 8.06 ± 0.45
AAATACTATATCAAGCGTACTTATTTCATGGTAATA [XGTACX_site7878] | 8.88 ± 0.4

Sequence | gcPBM binding intensity (ln)
TTTAAAATATTTTCTTGTACGAAGGAACATTTCTTA [XGTACX_site4013] | 8.46 ± 0.53
TATATATATATATATTGTACATTTTTTTTTTTTTTT [XGTACX_site7891] | 9.04 ± 0.47
GTGCCTTTAAAAAAAAGTACAAAAAAGAACGAATTA [XGTACX_site3714] | 8.51 ± 0.47
AATTTCAAATTGTATGTGCACATGTAGAAGTACTTT | 9.03 ± 0.31
AAAAAAAAAAAAAGCACACACACATATGAGTATATA [CACACA_site4682] | 9.54 ± 0.38
TTTTCATTAAATATATATGCATACCATATGTACATT [GTGCAC_negctrl_site539] | 8.97 ± 0.53
TATGTAAAGAGTAAGGGTACATGTATAATACGGCTC [XGTACX_site1283] | 9.33 ± 0.44
ATATACATATGTGTGTGTACTTATATCACATTTTTG [XGTACX_site3785] | 9.43 ± 0.36
TTATGGATAAATAAATGTACGTTAAGATAACACAAA [XGTACX_site4208] | 8.61 ± 0.39
TCGACAAAGGCATATACACACATTTGTAACATAAAT [CACACA_site4471] | 9.15 ± 0.46
GTTTTTTTGTTTTAGTGTACCTAAAACTGCATGTAG [XGTACX_site294] | 8.9 ± 0.42
AAACCGAATTTACATGAATGTAAATTATGTTGTTTT [CACACA_negctrl_site1834] | 8.69 ± 0.32
ACATAAAATAAATATACACACATATGTATTTATTAT [CACACA_site5648] | 9.05 ± 0.33
CAAGAATAAAAATACAAGCACACATGTATGAAATAT [CACACA_site3214] | 9.32 ± 0.57
ATTTCTCTATAGTAATGTACAAAAAAAAGGAAAAAG [XGTACX_site2757] | 8.64 ± 0.55
ATACAAAAAGTAAAAAGTACTTAACTAAATATATAA [XGTACX_site2335] | 8.74 ± 0.56
TTTTCAATATATTAATGTACGAATACGCAAATAAGA [XGTACX_site1613] | 8.61 ± 0.34
GCACATAAATATATGACACACACACCGATTATATAT [CACACA_site9003] | 9.87 ± 0.2
TTAATAAATAAAAATGCACACAGTTAACATGTTGAA [CACACA_site1200] | 8.82 ± 0.36
ATAATAATTTAATACATACACACGTATATCTTTTTT [CACACA_site2041] | 8.94 ± 0.49
AAAAAAAAAAAAAAAACACACAAACATCAAATTATT [CACACA_site5083] | 8.98 ± 0.46
GCAGGATTGGTTCAAACACACATATTATATGACTAT [CACACA_site660] | 9.02 ± 0.38
